Out of some 44,000 compounds screened, about 340 (0.77%) were called active. About 5% were inconclusive and are not listed. Calls come from the whole dose curve; as a rule, active = well fitted inhibition curve with a large enough effect; inconclusive = small, poorly fitted or top-dose-only effect; inactive = flat fitted curve, though single readings scatter. The list shows a part of the results.
test: Acumen qHTS Assay for Inhibitors of the mTORC1 Signaling Pathway in MEF (Tsc2-/-, p53-/-) Cells: Sytravon; conditions: phospho-rpS6 immunofluorescence/PI, 24 h; series mostly up to 38.3 µM; activity change, negative = inhibition: at the top concentration;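 note: plate controls were DMSO for no effect and rapamycin for full effect; nearly all actives have a fitted effect of over 50% in size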
Outline: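 Readout is phospho-S6 Alexa 488 signal normalized to PI per well, reported as % active cells with thresholds set from rapamycin (7.5 nM) and DMSO controls. Cells: Tsc2-/-, p53-/- MEFs, 24 hrs compound at 37 C; PI cell number serves as viability.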

SMILES	activity change, negative = inhibition
Cc1ccc(Sc2ccc(N3CCC(C(=O)Nc4ccc(Cl)cc4)CC3)nn2)cc1	inactive: -2.64%
CCc1ccc(C(=O)c2cn(CC(=O)NCc3ccc(C)cc3)c3nc(C)ccc3c2=O)cc1	inactive: 5.42%
Cc1ccc(CNC(=O)Cn2c(-c3cccs3)cc3cc(Cl)ccc32)cc1	inactive: -5.21%
O=C(Nc1nc2c(F)cccc2s1)c1ccc2c(c1)OCCO2	inactive: -1.78%
CCOC(=O)CCNC(=O)N1CCN(S(=O)(=O)c2ccc3c(ccn3C)c2)CC1	inactive: -16.7%
CCc1nn(CC(=O)NCCCc2ccccc2)c(=O)c2cc3cc(F)ccc3n12	inactive: -1.74%
Cc1ccc(N2C(=O)C(CC(=O)Nc3ccc(F)cc3)N(Cc3ccc4c(c3)OCO4)C2=O)cc1 (centres undefined)	inactive: 0.978%
Cc1ccc(CNC(=O)c2ccc3c(c2)NC(=O)C(CS(=O)(=O)Cc2cccc(F)c2)N3)cc1 (centres undefined)	inactive: 2.87%
CC(=O)c1ccc(NC(=O)c2cc3c(=O)oc4ccc(C)cc4c3s2)cc1	inactive: -0.0657%
O=C(CSCn1nnc2c(=O)[nH]c(Cc3ccc(F)cc3)nc21)Nc1ccccc1	inactive: 7.41%
Cc1cccc(N2C(=O)C(CC(=O)Nc3cccc(F)c3)N(CCc3ccncc3)C2=O)c1 (centres undefined)	inactive: -2.25%
Cc1ccc(C(=O)Nc2ccc(S(=O)(=O)N(Cc3ccccc3)c3ccccc3)cc2)cc1	inactive: -18.1%
O=S(=O)(c1ccc(Cl)cc1)c1nc(-c2ccccc2F)oc1NCc1ccccc1	inactive: -3.29%
COc1ccc(NC(=O)C2=CC(c3ccc4c(c3)OCO4)=NS(=O)(=O)N2C)cc1OC	inactive: -1.76%
CCOC(=O)c1c(C)oc2ccc(N(C(C)=O)S(=O)(=O)c3c(C)cc(C)cc3C)cc12	inactive: 4.18%
COC(=O)c1cc2sccc2n1Cc1ccc(F)cc1Cl	inactive: -0.176%
COc1ccc(OC)c(CC2C(=O)Nc3ccc(Br)cc32)c1 (centres undefined)	inactive: -8.44%
Cc1cc(N2CCN(c3cc(Cl)ccc3C)CC2)n2nc(-c3ccccc3)nc2n1	inactive: -11.5%
Cc1cc(F)ccc1S(=O)(=O)Nc1cc2c(C(=O)O)c(C)oc2c2ccccc12	inactive: -14%
N#Cc1ccc(NC(=O)C2Cc3ccccc3CN2S(=O)(=O)c2ccc(F)cc2)cc1 (centres undefined)	inactive: -12.9%
CCCCNC(=O)C1CCC(Cn2c(=O)c3sccc3n(CC(=O)Nc3ccccc3)c2=O)CC1 (centres undefined)	inactive: -13.1%
O=C(COc1ccc(F)cc1)Nc1ccc2nc(SCCOc3ccccc3)sc2c1	inactive: -2.7%
O=C(Nc1ccccc1C(=O)OCc1cc(=O)n2ccsc2n1)c1ccccc1Cl	inactive: 2.11%
COCCn1c(=N)c(C(=O)NC2CCCC2)cc2c(=O)n3cc(C)ccc3nc21	inactive: 3.28%

SMILES	activity change, negative = inhibition
CCN(CC)CCNC(=O)c1cn(CC)c2ccc(S(=O)(=O)N3CCc4ccccc4C3)cc2c1=O	inactive: -1.46%
CCC(=O)N1CCc2cc(Br)cc(S(=O)(=O)N3CCN(c4cc(C)ccc4C)CC3)c21	inactive: -12.7%
CCC(=O)N1CCc2cc(Br)cc(S(=O)(=O)CCC(=O)Nc3ccc(Cl)cc3)c21	inactive: -0.77%
Cc1cccc(C)c1NC(=O)CCC(=O)N1Cc2ccccc2Oc2ncccc21	inactive: 5.57%
CCOC(=O)c1cc(-c2ccc(C)cc2)n(CCC(=O)NCCc2ccc(C)cc2)c1C	inactive: 1.47%
COc1ccc(Oc2nc3c(c(=O)n(C)c(=O)n3C)n2Cc2ccc(Cl)cc2Cl)cc1	inactive: -12.4%
O=C(NC1CCN(Cc2ccccc2)CC1)c1ccc(Cn2c(=O)c3ccccc3n(Cc3cccc(F)c3)c2=O)cc1	inactive: -9.89%
O=C(Cc1ccc(NC(=O)N2CCSc3ncccc32)cc1)NCc1cccc(Cl)c1	inactive: -4.5%
Cc1cccc(C(=O)NCc2nc3ccccc3n2Cc2ccccc2Cl)c1	inactive: 0.128%
CCOc1ccccc1CNC(=O)c1oc2c(c1C)-c1nn(Cc3cccc(Cl)c3)cc1CC2	inactive: -3.39%
Cc1ccc2c(=O)c(C(=O)c3ccc(Cl)cc3)cn(CC(=O)Nc3ccc4c(c3)OCCO4)c2n1	inactive: 6.77%
O=C(Nc1cccc(OCc2cc(=O)n3ccccc3n2)c1)Nc1cccc(C(F)(F)F)c1	inactive: 5.61%
Cc1ccc(NC(=O)C2CCCN2S(=O)(=O)c2cccc3cccnc23)c(C)c1 (centres undefined)	inactive: -3.82%
COc1ccc(Cl)cc1C(=O)NCCS(=O)(=O)N1CCN(c2ccccc2OC)CC1	inactive: -19.6%
COc1cccc(NC(=O)Cn2c(=O)n(Cc3ccc(C(=O)NCc4ccc(C)cc4)cc3)c(=O)c3ccccc32)c1	inactive: 0.327%
CCOc1ccc(Cn2c(CNS(=O)(=O)c3ccc(C(C)(C)C)cc3)nc3cccnc32)cc1	inactive: 0.275%
CCOC(=O)c1c(C)n(-c2ccccc2)c2ccc(OC(=O)c3c(F)cccc3F)cc12	inactive: 4.91%
COc1ccc(CCNC(=O)C2c3ccccc3C(=O)N2Cc2ccccc2)cc1OC (centres undefined)	inactive: 12.5%
CCOc1ccc(CNC(=O)C2=Cc3cccc(OC)c3OC2)cc1	inactive: -0.108%
Cc1ccccc1OCC(=O)Nc1ccc2nc(SCC(=O)N3CCOCC3)sc2c1	inactive: -12.5%
CCOc1ccc(NC(=O)CCNS(=O)(=O)c2cccs2)cc1	inactive: 0.324%
Cc1ccc(-c2nn(CCC(N)=O)c(=O)c3ccccc23)cc1	inactive: -2.05%
COc1c(C)cc(NS(=O)(=O)c2ccc3c(c2)OCCO3)cc1C	inactive: -12.1%
COc1ccc2c(C)c(CCC(=O)NCc3ccccc3Cl)c(=O)oc2c1C	inactive: -2.36%

SMILES	activity change, negative = inhibition
Cc1cc(Nc2ccccc2O)nc(C)n1	inactive: 0%
Cc1ccc(C)c(S(=O)(=O)n2nc(C)c(S(=O)(=O)N3CCCCCC3)c2C)c1	inactive: -6.13%
Cc1cccc(C)c1-n1ncc(C(=O)NCCN2CCN(C)CC2)c1C1CCN(C(=O)OC(C)(C)C)CC1	inactive: -9.95%
CCOc1ccc(C(=O)NCc2nc(-c3ccc(Cl)cc3)no2)cc1OCC	inactive: -5.79%
CCOC(=O)c1cnc2ccc(OC)cc2c1Nc1cccc(C(C)=O)c1	inactive: 3.68%
Cc1cccc(NC(=O)C2CCN(S(=O)(=O)c3c(C)noc3/C=C/c3ccco3)CC2)c1	inactive: 2.87%
CCN(Cc1ccccc1)S(=O)(=O)c1ccc(F)c(C(=O)Nc2cc(C)ccc2OC)c1	inactive: 0%
Fc1ccc(CNc2nc3c(-c4ccc(F)cc4)nnn3c3ccccc23)cc1	inactive: -3.09%
COc1cc(C(=O)NCc2ccc3c(c2)CCN3C(=O)c2ccncc2)cc(OC)c1OC	inactive: 4.46%
Cc1ccc(NC(=O)NCCc2c(C)nn(C)c2C)c(Cl)c1	inactive: 0%
CCCCSc1ncnc2c1sc1nc(N3CCOCC3)c3c(c12)CCCC3	inactive: 6.37%
COc1cccc(/C=C/c2nc(C#N)c(N(C)Cc3ccccc3)o2)c1	inactive: -10.8%
COc1ccc(-c2noc(CSCC(=O)Nc3ccc(C)cc3Br)n2)cc1OC	inactive: 0.264%
COCCCNC(=O)CN1C(=O)c2c(c3ccccc3n2C)C1c1ccc(OC)cc1 (centres undefined)	inactive: -7.17%
Cc1ccc(NC(=O)c2cc(-c3ccc4c(c3)OCO4)on2)cc1	inactive: -2.8%
CCOc1ccc(CNC(=O)COc2cc(=O)n(C)c3ccccc23)cc1	inactive: 1.16%
CC1=C(C(=O)Nc2ccc(C)cc2)C(c2ccccc2Cl)n2nnnc2N1 (centres undefined)	inactive: -16.1%
COc1cc(NC(=O)c2ccc(C(=O)Nc3cc(OC)c(Cl)cc3OC)cc2)c(OC)cc1Cl	inactive: -7.68%
CCCN1CCN(CCCNC(=O)Cn2nc(C)n3c(cc4cc(F)ccc43)c2=O)CC1	inactive: -3.66%
Cc1cccc2c1-c1sc(C(=O)NCc3ccccc3Cl)cc1CO2	inactive: 0.31%
COc1cccc(NC(=O)c2cc(CN3CCOCC3)on2)c1	inactive: 0%
CCC(=O)N1CCc2cc(Br)cc(S(=O)(=O)CCC(=O)NCc3ccccc3)c21	inactive: -6.78%
COc1ccccc1CNC(=O)c1c2c(nc3ccccc13)C(=O)N(C1CCCCC1)C2	inactive: -6.78%
Cc1nn2c(=O)cc(COC(=O)c3ccc(C(C)(C)C)cc3)nc2s1	inactive: 7.79%

SMILES	activity change, negative = inhibition
CSc1cccc(NC(=O)CN(C)S(=O)(=O)c2ccc3c(c2)n(C)c(=O)c(=O)n3C)c1	inactive: -0.422%
O=c1ccc2cc(S(=O)(=O)N3CCCC3)ccc2[nH]1	inactive: -1.52%
COc1ccc(NC(=O)c2c(C)oc3ccc(O)c(CN4CCN(C)CC4)c23)cc1Cl	inactive: -2.49%
O=C(Nc1c(C(=O)N2CCN(c3ccc(F)cc3)CC2)oc2ccccc12)c1ccco1	inactive: -5.62%
COc1ccc(CCNC(=O)c2ccc(CS(=O)(=O)c3ccc(C)cc3)o2)cc1OC	inactive: -1.43%
Cc1ccc(-c2nnc(Nc3ccc(C(N)=O)cc3)c3ccccc23)cc1S(=O)(=O)N1CCCCC1	inactive: 5.03%
COc1cccc(N2CCN(S(=O)(=O)c3ccc(-c4cnc(C5CC5)o4)cc3)CC2)c1	inactive: 0%
CCOC(=O)C1CCCN(CCC(=O)Nc2ccc(OC)cc2OC)C1 (centres undefined)	inactive: -0.607%
O=C(CSc1nc2ccccc2n1Cc1ccc(F)c(Cl)c1)N1CCN(c2ccc(F)cc2)CC1	inactive: -6.51%
Cc1cccc(-n2ccnc2SCC(=O)Nc2ccccc2C(F)(F)F)c1	inactive: -2.8%
COc1ccc(CNC(=O)CCc2c(C)nc3c(c2C)c(=O)n(C)c(=O)n3C)cc1	inactive: 2.95%
CCn1cc(C(=O)NCCc2ccccc2)c(=O)c2cc(S(=O)(=O)N3CCOCC3)ccc21	inactive: -0.142%
CCCc1nn2c(=O)cc(COC(=O)c3ccc(NC(=O)c4cccs4)cc3)nc2s1	inactive: 5.59%
CCc1ccc(NC(=O)CSC2=Nc3ccccc3C3=NC(CCC(=O)NCc4cccs4)C(=O)N23)cc1 (centres undefined)	inactive: -7.59%
COc1cc(CN2CCc3nc(Nc4ccc5c(c4)OCCO5)ncc3C2)cc(OC)c1OC	inactive: 0%
CCC(=O)N1CCc2cc(S(=O)(=O)NC(C(=O)NCc3ccc(OC)cc3)C(C)C)ccc21 (centres undefined)	inactive: 2.45%
Cc1ccc(Cn2c(C)c(CNC3CCCCC3)c(C(=O)O)c2C)cc1	inactive: 0.859%
COc1ccc(OC)c(CCNC(=O)CCCc2nnc3n(C)c(=O)c4sccc4n23)c1	inactive: 5.14%
COc1cccc(N2C(=O)CSC23C(=O)N(CC(=O)Nc2cc(C)ccc2C)c2ccccc23)c1 (centres undefined)	inactive: -3.92%
CCOC(=O)c1cc2c(=O)n3ccccc3nc2n(Cc2ccco2)c1=NC(=O)c1cc(C)cc(C)c1	inactive: -2.54%
COC(=O)c1ccc(NC(=O)c2nn(C)c3c2CS(=O)(=O)c2ccccc2-3)cc1	inactive: 7.29%
CCc1ccccc1NC(=O)CC(c1ccc(F)cc1)N1Cc2ccccc2C1=O (centres undefined)	inactive: -1.43%

— PubChem BioAssay AID493208 (National Center for Advancing Translational Sciences (NCATS), 2011)
